Changes are numbered by the printed parent chain. In names and notes the source's numbering stands. Each block holds one binder with its values, some of them ahead of it.
Legend:
[1] = target: T1, Recombinant mouse serum albumin (mouse, UniProt P07724 25-608); test: SPR, Fc fusion captured on anti-human Fc, mouse albumin as analyte, pH 6.0
T1 construct: Analyte in SPR, 0-500 nM

[2] = target: T2, Recombinant cynomolgus serum albumin (cynomolgus, UniProt A2V9Z4 25-608); test: SPR Biacore 8K, VHH-Fc captured by anti-human Fc, albumin injected, pH 6.0, 25 C
T2 construct: Analyte in SPR

[3] = target: T3, Recombinant human serum albumin (human, UniProt P02768); test: as above
T3 construct: Analyte in SPR

[4] = target: T2, Recombinant cynomolgus serum albumin; test: SPR Biacore 8K, VHH-Fc captured by anti-human Fc, albumin injected, pH 7.4, 25 C
T2 sequence (A2V9Z4 25-608 limits assumed): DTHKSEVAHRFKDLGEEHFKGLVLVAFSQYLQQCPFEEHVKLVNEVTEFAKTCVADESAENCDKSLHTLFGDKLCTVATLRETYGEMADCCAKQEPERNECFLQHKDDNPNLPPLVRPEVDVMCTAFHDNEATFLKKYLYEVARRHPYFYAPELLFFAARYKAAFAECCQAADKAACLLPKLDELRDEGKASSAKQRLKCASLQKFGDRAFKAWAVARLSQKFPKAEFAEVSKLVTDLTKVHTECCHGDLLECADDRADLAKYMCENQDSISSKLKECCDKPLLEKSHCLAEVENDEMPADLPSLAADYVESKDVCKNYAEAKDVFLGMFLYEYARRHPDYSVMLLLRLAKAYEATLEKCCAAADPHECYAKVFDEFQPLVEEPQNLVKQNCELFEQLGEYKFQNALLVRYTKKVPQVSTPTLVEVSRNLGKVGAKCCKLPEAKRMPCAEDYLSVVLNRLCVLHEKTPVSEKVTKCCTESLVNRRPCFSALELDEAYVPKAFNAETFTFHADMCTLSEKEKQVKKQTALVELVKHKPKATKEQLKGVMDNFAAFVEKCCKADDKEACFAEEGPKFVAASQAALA

[5] = target: T3, Recombinant human serum albumin; test: as above
[6] = target: T4, Recombinant human serum albumin (human, UniProt P02768); test: SPR, Fc-VHH captured on anti-human Fc, human albumin as analyte, pH 6.0
T4 construct: Analyte in SPR, 0-500 nM

T1 sequence (P07724 25-608 limits assumed): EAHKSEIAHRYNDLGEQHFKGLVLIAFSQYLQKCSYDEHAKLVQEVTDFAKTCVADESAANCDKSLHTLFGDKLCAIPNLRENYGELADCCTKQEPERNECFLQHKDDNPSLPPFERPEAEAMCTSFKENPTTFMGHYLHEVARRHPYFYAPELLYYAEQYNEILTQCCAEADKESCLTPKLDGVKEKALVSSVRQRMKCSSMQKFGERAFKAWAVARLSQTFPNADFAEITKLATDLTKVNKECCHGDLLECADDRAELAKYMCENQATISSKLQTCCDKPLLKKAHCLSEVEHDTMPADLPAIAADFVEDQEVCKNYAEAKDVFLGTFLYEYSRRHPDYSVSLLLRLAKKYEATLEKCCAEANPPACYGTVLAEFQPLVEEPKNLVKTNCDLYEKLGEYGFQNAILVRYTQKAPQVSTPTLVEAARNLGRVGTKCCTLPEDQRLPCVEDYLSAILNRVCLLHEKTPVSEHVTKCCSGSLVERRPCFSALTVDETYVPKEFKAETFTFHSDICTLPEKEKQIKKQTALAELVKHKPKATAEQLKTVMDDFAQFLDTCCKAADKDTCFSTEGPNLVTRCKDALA

Kd [1]: 408 nM
koff [1]: 0.0377 s⁻¹
kon [1]: 92500 M⁻¹ s⁻¹
B1: VHH 22-Fc fusion (SEQ ID NO: 163) (Fc fusion)
chain: QVQLVESGGGLVQAGGSLRLSCAASGFTFGSFGMSWVRQAPGKGPEWVSAIDSGGVDTRYAESVKGRFTISRDNAKKTLYLQMNSLKPEDTAVYYCTIGQSTSRGSQGTQVTVSSGGGGS[letters of human IgG1 Fc left out]
notes: Llama VHH-G4S-wild-type IgG1 Fc

Kd [2]: 47 nM
koff [2]: 0.00611 s⁻¹
kon [2]: 130000 M⁻¹ s⁻¹
Kd [3]: 19 nM
koff [3]: 0.00289 s⁻¹
kon [3]: 153000 M⁻¹ s⁻¹
Kd [4]: 92.4 nM
Kd [5]: 50.1 nM
B2: VHH 9 - G4S - wild-type IgG1 Fc fusion (VHH-Fc fusion, SEQ ID NO: 150) (Fc fusion)
chain: B1 chain with Q1E, A14P, V56A, Q100R

Kd [1]: 138 nM
koff [1]: 0.0186 s⁻¹
kon [1]: 135000 M⁻¹ s⁻¹
B3: VHH 19-Fc fusion (SEQ ID NO: 160) (Fc fusion)
chain: B1 chain with A14P, V56G, D57V, R59L, P88S
notes: as for B1

Kd [2]: 49.4 nM
koff [2]: 0.00393 s⁻¹
kon [2]: 79700 M⁻¹ s⁻¹
Kd [3]: 25.4 nM
koff [3]: 0.00214 s⁻¹
kon [3]: 84100 M⁻¹ s⁻¹
Kd [4]: 81.1 nM
Kd [5]: 42.5 nM
B4: VHH 8 - G4S - wild-type IgG1 Fc fusion (VHH-Fc fusion, SEQ ID NO: 149) (Fc fusion)
chain: B1 chain with Q1E, A14P, G54S, V56A, Q100R, G105R, S106N, S114A

Kd [1]: 6.52 nM
koff [1]: 0.000796 s⁻¹
kon [1]: 122000 M⁻¹ s⁻¹
B5: VHH 13-Fc fusion (SEQ ID NO: 154) (Fc fusion)
chain: B1 chain with Q1E, A40V, V56T, V64I, T69I
notes: as for B1

Kd [2]: 56.4 nM
koff [2]: 0.0102 s⁻¹
kon [2]: 180000 M⁻¹ s⁻¹
Kd [3]: 20.7 nM
koff [3]: 0.00351 s⁻¹
kon [3]: 169000 M⁻¹ s⁻¹
B6: VHH 10 - G4S - wild-type IgG1 Fc fusion (VHH-Fc fusion, SEQ ID NO: 151) (Fc fusion)
chain: B1 chain with Q1E, A14P, V56A, Q100R, T102A

Kd [2]: 43.5 nM
koff [2]: 0.004 s⁻¹
kon [2]: 92000 M⁻¹ s⁻¹
Kd [3]: 18.8 nM
koff [3]: 0.00222 s⁻¹
kon [3]: 118000 M⁻¹ s⁻¹
Kd [4]: 91.5 nM
Kd [5]: 51.6 nM
B7: VHH 2 - G4S - wild-type IgG1 Fc fusion (VHH-Fc fusion, SEQ ID NO: 143) (Fc fusion)
chain: B1 chain with A14P, S31R, V56A, Q100R

Kd [2]: 19.5 nM
koff [2]: 0.00162 s⁻¹
kon [2]: 83400 M⁻¹ s⁻¹
Kd [3]: 7.97 nM
koff [3]: 0.000873 s⁻¹
kon [3]: 109000 M⁻¹ s⁻¹
Kd [4]: 40.4 nM
Kd [5]: 23.4 nM
B8: VHH 5 - G4S - wild-type IgG1 Fc fusion (VHH-Fc fusion, SEQ ID NO: 146) (Fc fusion)
chain: B1 chain with Q1E, A14P, V56T, V64I

Kd [1]: 7.48 nM
koff [1]: 0.000905 s⁻¹
kon [1]: 121000 M⁻¹ s⁻¹
B9: VHH 18-Fc fusion (SEQ ID NO: 159) (Fc fusion)
chain: B1 chain with A14P, V56T, V64I
notes: as for B1

Kd [1]: 7.01 nM
koff [1]: 0.000799 s⁻¹
kon [1]: 114000 M⁻¹ s⁻¹
B10: VHH 5-Fc fusion (SEQ ID NO: 146) (Fc fusion)
chain: B1 chain with Q1E, A14P, V56T, V64I
notes: as for B1

Kd [2]: 24.4 nM
koff [2]: 0.00211 s⁻¹
kon [2]: 86200 M⁻¹ s⁻¹
Kd [3]: 10.5 nM
koff [3]: 0.00117 s⁻¹
kon [3]: 112000 M⁻¹ s⁻¹
Kd [4]: 53 nM
Kd [5]: 28.1 nM
B11: VHH 3 - G4S - wild-type IgG1 Fc fusion (VHH-Fc fusion, SEQ ID NO: 144) (Fc fusion)
chain: B1 chain with Q1E, A14P, V56A

Kd [1]: 168 nM
koff [1]: 0.0276 s⁻¹
kon [1]: 164000 M⁻¹ s⁻¹
B12: VHH 16-Fc fusion (SEQ ID NO: 157) (Fc fusion)
chain: B1 chain with Q1E, A14P, V56A, S85N, V93M, Q100R
notes: as for B1

Kd [2]: 51.8 nM
koff [2]: 0.00977 s⁻¹
kon [2]: 189000 M⁻¹ s⁻¹
Kd [3]: 19.7 nM
koff [3]: 0.00334 s⁻¹
kon [3]: 170000 M⁻¹ s⁻¹
Kd [4]: 107 nM
Kd [5]: 56.3 nM
B13: VHH 4 - G4S - wild-type IgG1 Fc fusion (VHH-Fc fusion, SEQ ID NO: 145) (Fc fusion)
chain: B1 chain with V5Q, A14P, V56A, K77S, Q100R, T102S

Kd [1]: 149 nM
koff [1]: 0.0162 s⁻¹
kon [1]: 109000 M⁻¹ s⁻¹
B14: VHH 14-Fc fusion (SEQ ID NO: 155) (Fc fusion)
chain: B1 chain with A14P, V56G, Q100R, G105V, S106G
notes: as for B1

binding result [6]: no binding (tested: 500 nM)
B15: Fc-VHH 9-5 fusion (SEQ ID NO: 213) (Fc fusion)
chain: [letters of human IgG1 Fc left out]GGGSEVQLVESGGGLVQPGGSLRLSCAASGFTFGSFGMSWVRQAPGKGLEWVSAIDSGGADTRYAESVKGRFTISRDNSKNTLYLQMNSLRAEDTAVYYCTIGRSASRGGQGTTVTVSS

binding result [6]: no binding (tested: 500 nM)
B16: Fc-VHH 9-7 fusion (SEQ ID NO: 215) (Fc fusion)
chain: [letters of human IgG1 Fc left out]GGGSEVQLVESGGGLVQPGGSLRLSCAASGFTFGSFGMSWFRQAPGKEREFVSAIDSGGADTRYAESVKGRFTISRDNSKNTLYLQMNSLRAEDTAVYYCTIGRSASRGGQGTTVTVSS

binding result [6]: no binding (tested: 500 nM)
B17: Fc-VHH 9-4 fusion (SEQ ID NO: 212) (Fc fusion)
chain: [letters of human IgG1 Fc left out]GGGSEVQLVESGGGLVQPGGSLRLSCAASGFTFGSFGMSWVRQAPGKGLEWVSAIDSGGADTRYAESVKGRFTISRDNSKNTLYLQMNSLRAEDTAVYYCTIGRSASRWGQGTTVTVSS

binding result [6]: no binding (tested: 500 nM)
B18: Fc-VHH 9-6 fusion (SEQ ID NO: 214) (Fc fusion)
chain: [letters of human IgG1 Fc left out]GGGSEVQLVESGGGLVQPGGSLRLSCAASGFTFGSFGMSWFRQAPGKEREFVSAIDSGGADTRYAESVKGRFTISRDNSKNTLYLQMNSLRAEDTAVYYCTIGRSASRWGQGTTVTVSS
